# PubChem BioAssay AID1476 (National Center for Advancing Translational Sciences (NCATS), 2009)
# About 4,500 (2.2%) of roughly 200,000 compounds were called active. Inconclusive results, whose numbers are uncertain, are shown with a selection of clear calls. The call rests on the fitted dose curve; in most records, active means well fitted inhibition curve with a large enough effect; inconclusive means small, poorly fitted or top-dose-only effect, or effect the other way; inactive means flat fitted curve, though single readings scatter. Where the call is inconclusive, the potency comes from a doubtful curve fit.
# Target: Cruzipain (Trypanosoma cruzi) (UniProt P25779)
# Test: qHTS Assay for Promiscuous and Specific Inhibitors of Cruzain (without detergent); further: nearly all actives have a fitted effect of over 40% in size;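 on max response, negative = inhibition: plate controls were enzyme without inhibitor for no effect and buffer without enzyme for full effect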
# Settings: purified cruzain, Z-FR-AMC fluorescence, no detergent
# In short: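 Detergent-free condition (0.00005% Triton X-100) in acetate buffer pH 5.5 with DTT. 1.5 nM enzyme and compound were pre-mixed 15 min, then 2 uM Z-FR-AMC substrate added; reaction progress from fluorescence change between first and third reads (60 s).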
# Potency means the concentration at half of the fitted maximal effect; tags describe the fitted curve by direction and shape.
# Sequence of UniProt P25779 (P25779 whole entry, looked up): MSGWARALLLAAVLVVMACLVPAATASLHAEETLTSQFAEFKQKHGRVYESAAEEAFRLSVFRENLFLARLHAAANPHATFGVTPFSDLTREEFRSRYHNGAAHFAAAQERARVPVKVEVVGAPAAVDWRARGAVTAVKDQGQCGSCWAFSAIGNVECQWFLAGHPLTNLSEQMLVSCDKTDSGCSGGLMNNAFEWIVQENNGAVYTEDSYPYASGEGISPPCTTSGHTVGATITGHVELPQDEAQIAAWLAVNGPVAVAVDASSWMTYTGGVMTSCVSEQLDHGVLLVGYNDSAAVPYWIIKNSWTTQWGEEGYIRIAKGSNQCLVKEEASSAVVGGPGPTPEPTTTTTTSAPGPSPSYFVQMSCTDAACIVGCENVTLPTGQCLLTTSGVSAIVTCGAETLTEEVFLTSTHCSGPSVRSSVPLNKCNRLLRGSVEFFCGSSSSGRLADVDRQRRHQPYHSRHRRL
SMILES,Potency,"max response, negative = inhibition"
COc1ccc(NC(=O)CCC(=O)c2cccs2)cc1S(=O)(=O)Nc1ccccc1Cl,"inconclusive: 39.8 µM [inhibitor, single point]",–
O=C(NCc1ccco1)c1cc2c(s1)CCCCC2,"inconclusive: 39.8 µM [inhibitor, single point]",–
COC(=O)C1=C(C)NC(C)=C(C(=O)OC)C1c1ccc(OC(=O)c2ccco2)cc1,"inconclusive: 39.8 µM [activator, single point]",–
O=C(Nc1cccnc1)c1cc(-c2cccnc2)nc2ccc(Br)cc12,"inconclusive: 39.8 µM [activator, single point]",–
COc1cc(-c2ccno2)ccc1S(=O)(=O)N1CCN(c2ccc(C(C)=O)cc2)CC1,–,inactive: -15.8%
CCC(c1nnnn1C(C)(C)C)N(Cc1ccco1)Cc1cc2cccc(C)c2[nH]c1=O (centres undefined),"inconclusive: 25.1 µM [activator, single point]",–
COc1cc(/C=N/N=C2/NC(=O)C(c3ccccc3)S2)ccc1O (centres undefined),"inconclusive: 12.6 µM [inhibitor, partial curve]",–
O=C(/C=C/Nc1ccc(Cc2ccc(N/C=C/C(=O)C(F)(F)F)cc2)cc1)C(F)(F)F,"inconclusive: 3.98 µM [inhibitor, full curve, poor fit]",–
O=C(Nc1nc(-c2ccncc2)cs1)c1ccc(S(=O)(=O)N2CCOCC2)cc1,–,inactive: 5%
O=C(Nc1ccc(Cl)cc1F)c1ccc(COc2c(F)c(F)c(F)c(F)c2F)o1,"inconclusive: 31.6 µM [inhibitor, single point]",–
CN(C)c1ccc(C(CNC(=O)c2ccc(C(C)(C)C)cc2)N2CCOCC2)cc1 (centres undefined),"inconclusive: 20 µM [activator, single point]",–
Cc1ccccc1CN(c1ccc(C(=O)Nc2ccccc2C(=O)N2CCCC2)cc1)S(C)(=O)=O,"inconclusive: 31.6 µM [activator, single point]",–
COc1cccc(CNC(=O)CCc2cn(Cc3ccccc3Cl)c3ccccc23)c1,"inconclusive: 39.8 µM [inhibitor, single point]",–
CCCCOc1ccc(S(=O)(=O)Nc2ccc(-c3ccc(N4CCCCCC4)nn3)cc2)cc1,–,inactive: -23.9%
COc1ccc(/C(C#N)=C/c2c(-c3ccc(Cl)cc3)nc3c(C)cccn23)cc1,"inconclusive: 39.8 µM [inhibitor, single point]",–
Cc1cc(C)cc(OCC(=O)NCCc2nc3ccccc3[nH]2)c1,–,inactive: 16.9%
Cc1ccc(NC(=O)Cc2ccc(-n3c(C)nc4cccnc43)cc2)cc1C,"inconclusive: 39.8 µM [activator, single point]",–
Cc1cc(C)c(NC(=O)C(C)n2nc(-c3ccc(C)c(C)c3)ccc2=O)c(C)c1 (centres undefined),–,inactive: 27.6%
C=CCCC(=O)Nc1nc(C)c(-c2csc(Nc3ccccc3OC)n2)s1,"inconclusive: 25.1 µM [inhibitor, single point]",–
Cn1c(Cn2nnc3ccccc32)nnc1SCC(=O)N1c2ccccc2Sc2ccccc21,"inconclusive: 25.1 µM [activator, single point]",–
COc1ccc(C(=O)Cn2nnc(-c3ccccc3NC(=O)c3ccco3)n2)cc1,"inconclusive: 39.8 µM [inhibitor, single point]",–
CCc1ccc(C(=O)c2cn(CC(=O)Nc3ccc(F)cc3)c3ccc(OC)cc3c2=O)cc1,–,inactive: -2.77%

SMILES,Potency,"max response, negative = inhibition"
CC(=O)N1CCN(c2csc3ccc(F)cc3c2=O)CC1,–,inactive: -9.36%
Cc1cccc(-n2c(N)cc(=O)nc2SCC(=O)Nc2nnc(C)s2)c1,active: 25.1 µM,–
CN(Cc1ccco1)c1cc(-c2ccccc2C(F)(F)F)ncn1,"inconclusive: 25.1 µM [activator, single point]",–
O=C(CC1C(=O)N(c2ccccc2)C(=O)N1CCC1=CCCCC1)Nc1ccc(F)cc1 (centres undefined),–,inactive: -5.6%
CC[C@H]1C(c2cccc(Cl)c2)=NN(c2ccccc2)[C@@H]1CO,–,inactive: -11.2%
COc1ccc(-c2c3c(=O)n(C)c(=O)n(C)c3cn2-c2cccc(OC)c2)cc1,"inconclusive: 39.8 µM [activator, single point]",–
COc1cc(-c2nc(S(=O)(=O)c3ccc(Cl)cc3)c(N(C)C)o2)cc(OC)c1OC,"inconclusive: 39.8 µM [activator, single point]",–
CC[C@@H](CO)NC(=O)[C@H]1C=C2c3cccc4[nH]cc(c34)C[C@H]2N(C)C1,"inconclusive: 39.8 µM [inhibitor, single point]",–
Cc1cccc(CN2C(=O)c3ccccc3S(=O)(=O)c3ccc(C(=O)NCCC4=CCCCC4)cc32)c1,"inconclusive: 39.8 µM [inhibitor, single point]",–
COc1ccc(-n2ncc3c(NCc4ccc5c(c4)OCO5)ncnc32)cc1,"inconclusive: 31.6 µM [inhibitor, single point]",–
CN(C)c1ccc(Nc2nc(-c3cccnc3)cs2)cc1,"inconclusive: 25.1 µM [inhibitor, single point]",–
N#C/C(=C(/O)COC(=O)CSc1ccc(Cl)cc1)c1nc2ccccc2[nH]1,"inconclusive: 31.6 µM [inhibitor, single point]",–
O=c1cc(N2CCN(c3ccccc3)CC2)[nH]c(=O)n1C1CCCCC1,"inconclusive: 39.8 µM [inhibitor, single point]",–
Cc1ccc(C(=O)n2c(-c3ccccc3)cnc2SCC(=O)Nc2ccccc2)cc1,"inconclusive: 39.8 µM [inhibitor, single point]",–
COC(=O)c1ccccc1NC(=O)Cc1nc(-c2ccccc2)sc1-c1ccc(C)cc1,active: 25.1 µM,–
N#Cc1ccccc1/C=N/Nc1nc(-c2ccccc2)c2cc(Br)ccc2n1,"inconclusive: 39.8 µM [inhibitor, single point]",–
Cc1ccc(N(CC(=O)NCc2ccc(Cl)cc2)S(=O)(=O)N(C)C)cc1,"inconclusive: 0.126 µM [inhibitor, single point]",–
COc1ccc(C(=O)Nc2ccccc2C(=O)N/N=C/c2ccccc2OC)cc1,active: 25.1 µM,–
CC1=CN2C(=N)/C(=C/c3ccc(Sc4ccc(Cl)cc4)o3)C(=O)N=C2S1,"inconclusive: 39.8 µM [inhibitor, single point]",–
Cc1ccc(CSc2ncc(Cl)c(C(=O)NCCc3ccc(S(N)(=O)=O)cc3)n2)cc1,–,inactive: 15%
COc1ccc(S(=O)(=O)N(C)CC(=O)N2CCN(c3ccc(F)cc3)CC2)cc1OC,"inconclusive: 31.6 µM [activator, single point]",–
COc1ccccc1CNC(=O)c1oc2ccc(S(=O)(=O)N3CCCCC3)cc2c1C,"inconclusive: 10 µM [inhibitor, single point]",–

SMILES,Potency,"max response, negative = inhibition"
CC(C)(C)OC(=O)NCCCC1=CC2=CC(=O)C(C)(OC(=O)c3cccs3)C(=O)C2=CO1 (centres undefined),–,inactive: -14.6%
CCc1ccccc1NC(=O)c1ccc2c(O)c(S(=O)(=O)c3ccccc3)c(=O)[nH]c2c1,–,inactive: 6.71%
O=C(O)CCCCCN1C(=O)/C(=C\c2ccncc2)SC1=S,"inconclusive: 25.1 µM [activator, partial curve]",–
COc1cc(/C=N/Nc2cccc(C)c2)ccc1OC(=O)c1cccs1,active: 15.8 µM,–
COc1ccc(OCC(=O)OCc2cc(=O)n3cc(C)sc3n2)cc1,–,inactive: -8.4%
O=C(O)COc1ccccc1C1C2C(=O)N(c3ccccc3)C(=O)C2ON1c1ccccc1 (centres undefined),"inconclusive: 31.6 µM [activator, single point]",–
CCOCCCN1C(=O)CN(C2CCCCCC2)C(=O)C1c1ccc(OC(C)C)c(OC)c1 (centres undefined),"inconclusive: 31.6 µM [activator, single point]",–
CCC1CCCCN1S(=O)(=O)c1ccc(C(=O)Nc2sc3c(c2C(=O)NC)CCC3)cc1 (centres undefined),–,inactive: 7.54%
CN(C)S(=O)(=O)c1cccc(NC(=O)c2cc(-c3cccs3)nn2-c2cccc(Cl)c2)c1,"inconclusive: 31.6 µM [inhibitor, single point]",–
CCOC(=O)N1CCC(N2C(=O)c3ccccc3C2Nc2cc(Cl)c(OC)cc2OC)CC1 (centres undefined),"inconclusive: 31.6 µM [activator, partial curve]",–
CC(C)Cn1cc(C(=O)NCCCN2CCCC2=O)c2c3ccccc3n(C)c2c1=O,"inconclusive: 39.8 µM [activator, single point]",–
O=C(COC(=O)c1ccccc1)c1ccc(Br)cc1,"inconclusive: 39.8 µM [inhibitor, single point]",–
CSc1nnc(NC(=O)Cc2coc3cc(C)ccc23)s1,"inconclusive: 31.6 µM [inhibitor, single point]",–
Cc1ccccc1OCC(=O)Nc1ccc2c(c1)Cc1ccccc1-2,"inconclusive: 39.8 µM [inhibitor, single point]",–
O=C(NC1CC(=O)N(c2cccc(F)c2)C1)C1CC1 (centres undefined),–,inactive: 7.29%
CCOC(=O)c1c(-c2ccccc2)oc2ccc(NS(=O)(=O)c3ccc(C)cc3C)cc12,active: 15.8 µM,–
Nc1cccc(-c2cn3ccsc3n2)c1,–,inactive: 10.5%
Cc1nc2ccc(NC(=O)c3cccc(S(=O)(=O)N(C)c4ccccc4)c3)cc2s1,"inconclusive: 39.8 µM [activator, single point]",–
O=C1OCCN1C(=O)[C@H]1[C@H](c2ccc(F)cc2)C(c2ccc(F)cc2)=NN1c1ccccc1,"inconclusive: 25.1 µM [inhibitor, single point]",–
CCOC(=O)c1ccc(NC(=O)CSc2nnc(CNc3ccc(C)cc3)n2C)cc1,"inconclusive: 39.8 µM [activator, single point]",–
